IC50 is the fitted dose that halves viability relative to control wells, and lower means more sensitive; fits outside the tested doses are given as limits. The AUC spans the tested range (256-fold, ending at the top dose) of the same fit: 1 means no effect, lower means more sensitive. For part of these data: A top dose marked as inferred comes from the curve model; the source does not state it.
Key:
Experiment in all cases: Viability of human cancer cell lines after 72 h of drug (GDSC screen)
[1] = compound: COC(=O)CNC(=O)C(=O)OC [Dimethyloxalylglycine]; details: top dose 4000 µM; top dose inferred
Method: (§1)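 Human cancer cell lines in 384-well plates, medium with 10% serum, drug for 72 h over a 256-fold dose range (nine 2-fold or five 4-fold steps up to the top dose). Adherent lines were fixed and stained with the nucleic acid dye Syto60, suspension lines read with resazurin; signal relative to control wells, capped at 0 and 100%. One two-parameter sigmoid per drug and line, fitted in a mixed model over all curves with the slope shared within a line.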

[2] = compound: COc1cccc2c1C(=O)c1c(O)c3c(c(O)c1C2=O)C[C@@](O)(C(=O)CO)C[C@@H]3O[C@H]1C[C@H](N)[C@H](O)[C@H](C)O1 [Doxorubicin]; details: top dose 1.024 µM
Method: as §1

[3] = compound: Cc1cnc(Nc2ccc(F)cc2Cl)nc1-c1c[nH]c(C(=O)N[C@H](CO)c2cccc(Cl)c2)c1 [VX-11e]; details: top dose 5.12 µM; top dose inferred
Method: as §1

[4] = compound: Cc1cnc(Nc2ccc(OCCN3CCCC3)cc2)nc1Nc1cccc(S(=O)(=O)NC(C)(C)C)c1 [TG101348]; details: top dose 10.24 µM
Method: as §1

[5] = compound: CS(=O)(=O)c1ccc(C(=O)Nc2ccc(Cl)c(-c3ccccn3)c2)c(Cl)c1 [Vismodegib]; details: top dose 10 µM; top dose inferred
Method: as §1

[6] = compound: CCc1cc(-c2n[nH]c(C)c2-c2ccc3c(c2)OCCO3)c(O)cc1O [CCT018159]; details: top dose 10 µM; top dose inferred
Method: as §1

[7] = compound: O=C(c1ccc(C(=O)N2CCC(N3CCCC3)CC2)c(Nc2ccccc2)c1)N1CCC(N2CCCC2)CC1 [UNC1215]; details: top dose 1 µM; top dose inferred
Method: as §1

[8] = compound: CN(C)Cc1cccc(N=C(c2ccccc2)c2c(O)[nH]c3cc(C(=O)N(C)C)ccc23)c1 [BIX02189]; details: top dose 20 µM; top dose inferred
Method: as §1

[9] = compound: COc1cccc2cc(-c3nc([C@H]4CC[C@H](C(=O)O)CC4)n4ncnc(N)c34)[nH]c12 [OSI-027]; details: top dose 20 µM
Method: as §1

[10] = compound: C=CCNC1=C2C[C@@H](C)C[C@H](OC)[C@H](O)[C@@H](C)/C=C(\C)[C@H](OC(N)=O)[C@@H](OC)/C=C\C=C(/C)C(=O)NC(=CC1=O)C2=O [17-AAG]; details: top dose 1 µM
Method: as §1

Row | Cell Line | AUC [1] | IC50 [1] [µM] | AUC [2] | IC50 [2] [µM] | AUC [3] | IC50 [3] [µM] | AUC [4] | IC50 [4] [µM] | AUC [5] | IC50 [5] [µM] | AUC [6] | IC50 [6] [µM] | AUC [7] | IC50 [7] [µM] | AUC [8] | IC50 [8] [µM] | AUC [9] | IC50 [9] [µM] | AUC [10] | IC50 [10] [µM]
1 | SUP-HD1 (Hodgkin lymphoma, suspension) | 0.499 | 249 | 0.583 | 0.107 | 0.969 | > 5.12 | 0.467 | 0.521 | 0.961 | > 10 | 0.333 | 0.219 | 0.982 | > 1 | 0.864 | 16.1 | 0.386 | 0.619 | 0.798 | 0.449
2 | EB2 (Burkitt lymphoma, suspension) | 0.524 | 289 | 0.373 |  | 0.963 | > 5.12 | 0.477 | 0.559 | 0.99 | > 10 | 0.99 | > 10 | 0.989 | > 1 | 0.715 | 4.74 | 0.084 | < 0.0781 | 0.99 | > 1
3 | BV-173 (chronic myeloid leukaemia, suspension) | 0.473 | 213 | 0.864 | 0.725 | 0.964 | > 5.12 | 0.448 | 0.471 | 0.871 | 7.56 | 0.833 | 5.4 | 0.968 | > 1 | 0.918 | > 20 | 0.173 | 0.151 | 0.796 | 0.405
4 | H4 (glioma, adherent) | 0.496 | 244 | 0.508 | 0.0671 | 0.982 | > 5.12 | 0.786 | 4.37 | 0.976 | > 10 | 0.951 | > 10 | 0.985 | > 1 | 0.972 | > 20 | 0.641 | 3.06 | 0.396 | 0.0324
5 | JHH-2 (liver, adherent) | 0.645 | 650 | 0.809 | 0.585 | 0.91 | > 5.12 | 0.84 | 7.8 | 0.965 | > 10 | 0.883 | > 10 | 0.983 | > 1 | 0.953 | > 20 | 0.391 | 0.61 | 0.964 | > 1
6 | CPC-N (small cell lung carcinoma, suspension) | 0.745 | 1360 | 0.513 | 0.0695 | 0.977 | > 5.12 | 0.738 | 3.3 | 0.937 | > 10 | 0.92 | > 10 | 0.974 | > 1 | 0.956 | > 20 | 0.474 | 1.06 | 0.984 | > 1
7 | SW954 (urogenital system, adherent) | 0.358 | 101 | 0.294 | 0.0166 | 0.864 | 4.59 | 0.846 | 7.61 | 0.965 | > 10 | 0.793 | 4.64 | 0.982 | > 1 | 0.903 | > 20 | 0.356 | 0.498 | 0.745 | 0.319
8 | LU-135 (small cell lung carcinoma, suspension) | 0.41 | 148 | 0.288 | 0.0183 | 0.975 | > 5.12 | 0.617 | 1.26 | 0.942 | > 10 | 0.88 | 7.37 | 0.988 | > 1 | 0.966 | > 20 | 0.434 | 0.855 | 0.752 | 0.283
9 | LCLC-103H (large cell lung carcinoma, adherent) | 0.682 | 765 | 0.317 | 0.0208 | 0.984 | > 5.12 | 0.747 | 3 | 0.973 | > 10 | 0.919 | > 10 | 0.987 | > 1 | 0.908 | > 20 | 0.476 | 1.08 | 0.948 | > 1
10 | SNU-C1 (large intestine, suspension) | 0.791 | 2830 | 0.956 | > 1.02 | 0.959 | > 5.12 | 0.906 | > 10.2 | 0.98 | > 10 | 0.98 | > 10 | 0.971 | > 1 | 0.977 | > 20 | 0.875 | > 20 | 0.779 | 0.622
11 | TE-11 (oesophagus, adherent) | 0.593 | 439 | 0.706 | 0.23 | 0.99 | > 5.12 | 0.958 | > 10.2 | 0.987 | > 10 | 0.878 | 8.6 | 0.989 | > 1 | 0.99 | > 20 | 0.973 | > 20 | 0.569 | 0.095
12 | LOUCY (T-cell lymphoblastic leukaemia, suspension) | 0.059 | < 15.6 | 0.346 | 0.0262 | 0.991 | > 5.12 | 0.574 | 0.978 | 0.991 | > 10 | 0.935 | > 10 | 0.991 | > 1 | 0.884 | 14.8 | 0.292 | 0.369 | 0.958 | > 1
13 | KLE (endometrium, adherent) | 0.702 | 1290 | 0.653 | 0.215 | 0.958 | > 5.12 | 0.851 | > 10.2 | 0.953 | > 10 | 0.96 | > 10 | 0.975 | > 1 | 0.88 | > 20 | 0.603 | 2.81 | 0.93 | > 1
14 | NCI-H1838 (lung adenocarcinoma, adherent) | 0.926 | > 4000 | 0.755 | 0.417 | 0.969 | > 5.12 | 0.923 | > 10.2 | 0.964 | > 10 | 0.963 | > 10 | 0.985 | > 1 | 0.979 | > 20 | 0.955 | > 20 | 0.852 | > 1
15 | OCUM-1 (stomach, adherent) | 0.902 | > 4000 | 0.582 | 0.11 | 0.962 | > 5.12 | 0.969 | > 10.2 | 0.987 | > 10 | 0.743 | 3.4 | 0.985 | > 1 | 0.985 | > 20 | 0.841 | 16.3 | 0.553 | 0.0886
16 | NCI-H322M (lung adenocarcinoma, suspension) | 0.862 | > 4000 | 0.985 | > 1.02 | 0.93 | > 5.12 | 0.848 | > 10.2 | 0.98 | > 10 | 0.94 | > 10 | 0.979 | > 1 | 0.925 | > 20 | 0.894 | > 20 | 0.915 | > 1
17 | HO-1-u-1 (head and neck, adherent) | 0.447 | 180 | 0.601 | 0.12 | 0.98 | > 5.12 | 0.942 | > 10.2 | 0.96 | > 10 | 0.902 | > 10 | 0.987 | > 1 | 0.984 | > 20 | 0.688 | 4.09 | 0.407 | 0.0352
18 | NCI-H2452 (mesothelioma, adherent) | 0.674 | 843 | 0.883 | > 1.02 | 0.984 | > 5.12 | 0.984 | > 10.2 | 0.984 | > 10 | 0.949 | > 10 | 0.975 | > 1 | 0.983 | > 20 | 0.984 | > 20 | 0.633 | 0.157
19 | P30-OHK (lymphoblastic leukaemia, suspension) | 0.597 | 439 | 0.476 | 0.0557 | 0.962 | > 5.12 | 0.506 | 0.662 | 0.983 | > 10 | 0.948 | > 10 | 0.99 | > 1 | 0.782 | 6.95 | 0.183 | 0.176 | 0.98 | > 1
20 | HH (T-cell leukaemia, suspension) | 0.262 | 40.8 | 0.678 | 0.24 | 0.838 | > 5.12 | 0.581 | 1.15 | 0.926 | > 10 | 0.923 | > 10 | 0.97 | > 1 | 0.716 | 6.35 | 0.155 | < 0.0781 | 0.902 | > 1
21 | KS-1 (glioma, adherent) | 0.232 | 33.5 | 0.212 | 0.00714 | 0.908 | > 5.12 | 0.617 | 1.45 | 0.979 | > 10 | 0.907 | > 10 | 0.976 | > 1 | 0.864 | > 20 | 0.304 | 0.304 | 0.319 | 0.017
22 | EFO-21 (ovary, adherent) | 0.51 | 269 | 0.731 | 0.397 | 0.977 | > 5.12 | 0.793 | 7.19 | 0.978 | > 10 | 0.96 | > 10 | 0.977 | > 1 | 0.915 | > 20 | 0.719 | 6.94 | 0.924 | > 1
23 | HOS (osteosarcoma, adherent) | 0.617 | 494 | 0.362 | 0.0286 | 0.988 | > 5.12 | 0.992 | > 10.2 | 0.915 | > 10 | 0.824 | 4.68 | 0.99 | > 1 | 0.992 | > 20 | 0.983 | > 20 | 0.778 | 0.338

From the supplement of paper PMC4967469
